In the supplement of paper PMC4967469:
Lines with a small IC50 respond at low doses; a limit (>, <) means that the fit lies beyond the doses tested. AUC, from the same fit, is the share of area under the viability curve across the 256-fold dose range; values near 1 show little effect. For some assays here: The top dose, if marked as inferred, was derived from the fitted curves, not read from the paper.

Legend:
Assay in all cases: Viability of human cancer cell lines after 72 h of drug (GDSC screen)
Methotrexate = compound: CN(Cc1cnc2nc(N)nc(N)c2n1)c1ccc(C(=O)N[C@@H](CCC(=O)O)C(=O)O)cc1 [Methotrexate]; conditions: top dose 0.2 µM
Description: (§1)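 Human cancer cell lines in 384-well plates, medium with 10% serum, drug for 72 h over a 256-fold dose range (nine 2-fold or five 4-fold steps up to the top dose). Adherent lines were fixed and stained with the nucleic acid dye Syto60, suspension lines read with resazurin; signal relative to control wells, capped at 0 and 100%. One two-parameter sigmoid per drug and line, fitted in a mixed model over all curves with the slope shared within a line.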

SN-38 = compound: CCc1c2c(nc3ccc(O)cc13)-c1cc3c(c(=O)n1C2)COC(=O)[C@]3(O)CC [SN-38]; conditions: top dose 0.05 µM; top dose inferred
Description: as §1

Vorinostat = compound: O=C(CCCCCCC(=O)Nc1ccccc1)NO [Vorinostat]; conditions: top dose 10 µM
Description: as §1

Dabrafenib = compound: CC(C)(C)c1nc(-c2cccc(NS(=O)(=O)c3c(F)cccc3F)c2F)c(-c2ccnc(N)n2)s1 [Dabrafenib]; conditions: top dose 10 µM
Description: as §1

Axitinib = compound: CNC(=O)c1ccccc1Sc1ccc2c(/C=C/c3ccccn3)n[nH]c2c1 [Axitinib]; conditions: top dose 2 µM
Description: as §1

Cell Line | AUC (Methotrexate) | IC50 (Methotrexate) [µM] | AUC (SN-38) | IC50 (SN-38) [µM] | AUC (Vorinostat) | IC50 (Vorinostat) [µM] | AUC (Dabrafenib) | IC50 (Dabrafenib) [µM] | AUC (Axitinib) | IC50 (Axitinib) [µM]
SW756 (cervix, adherent) | 0.984 | > 0.2 | 0.408 | 0.00166 | 0.761 | 4.18 | 0.977 | > 10 | – | –
HuP-T4 (pancreas, adherent) | 0.982 | > 0.2 | 0.406 | 0.0017 | 0.721 | 2.77 | – | – | – | –
C-33-A (cervix, adherent) | 0.972 | > 0.2 | 0.36 | 0.00128 | 0.557 | 0.892 | 0.92 | > 10 | – | –
RPMI-8402 (T-cell lymphoblastic leukaemia, suspension) | 0.37 | 0.00583 | 0.342 | 0.00123 | 0.493 | 0.6 | 0.935 | > 10 | – | –
PA-TU-8988T (pancreas, adherent) | 0.983 | > 0.2 | 0.713 | 0.0125 | 0.86 | 8.41 | 0.915 | > 10 | – | –
Hey (ovary, adherent) | 0.978 | > 0.2 | 0.57 | 0.00479 | 0.589 | 1.08 | 0.586 | 1.06 | – | –
RPMI-7951 (melanoma, adherent) | 0.927 | > 0.2 | 0.664 | 0.00879 | 0.787 | 4.2 | – | – | – | –
SK-MEL-30 (melanoma, adherent) | 0.964 | > 0.2 | 0.671 | 0.00966 | 0.825 | 6.47 | 0.933 | > 10 | – | –
SK-N-AS (neuroblastoma, adherent) | 0.965 | > 0.2 | 0.722 | 0.0149 | 0.625 | 1.46 | 0.942 | > 10 | – | –
A427 (non-small cell lung carcinoma, adherent) | – | – | 0.826 | 0.0306 | 0.565 | 0.944 | 0.926 | > 10 | – | –
PSN1 (pancreas, adherent) | 0.95 | > 0.2 | 0.683 | 0.00922 | 0.725 | 2.39 | 0.778 | 3.4 | – | –
HOS (osteosarcoma, adherent) | 0.989 | > 0.2 | 0.406 | 0.00181 | 0.726 | 2.41 | 0.971 | > 10 | – | –
Saos-2 (osteosarcoma, adherent) | 0.93 | > 0.2 | 0.633 | 0.0085 | 0.817 | 8.98 | 0.978 | > 10 | – | –
RH-41 (rhabdomyosarcoma, adherent) | 0.827 | 0.0961 | 0.764 | 0.0154 | 0.641 | 1.43 | 0.991 | > 10 | – | –
Mewo (melanoma, adherent) | 0.965 | > 0.2 | 0.802 | 0.0304 | 0.783 | 5.1 | 0.903 | > 10 | – | –
NCI-H526 (small cell lung carcinoma, suspension) | 0.567 | 0.0189 | 0.477 | 0.00271 | 0.543 | 0.815 | 0.989 | > 10 | – | –
Daoy (medulloblastoma, adherent) | 0.984 | > 0.2 | 0.242 | 0.000617 | 0.682 | 1.91 | 0.985 | > 10 | – | –
NCI-H2023 (lung adenocarcinoma, adherent) | 0.756 | 0.0844 | 0.765 | 0.0228 | 0.791 | 5.77 | 0.939 | > 10 | – | –
AU565 (breast, adherent) | 0.734 | 0.0636 | 0.651 | 0.00863 | 0.721 | 2.87 | – | – | – | –
HCC1187 (breast, suspension) | – | – | 0.851 | 0.0355 | 0.251 | 0.126 | 0.98 | > 10 | – | –
SK-HEP-1 (liver, adherent) | 0.943 | > 0.2 | 0.361 | 0.00132 | 0.761 | 3.34 | – | – | – | –
D-263MG (glioma, adherent) | 0.971 | > 0.2 | 0.649 | 0.00883 | 0.776 | 4.84 | 0.981 | > 10 | – | –
IGR-37 (melanoma, adherent) | 0.989 | > 0.2 | 0.591 | 0.00542 | 0.5 | 0.625 | 0.033 | < 0.0391 | – | –
MG-63 (osteosarcoma, adherent) | 0.821 | 0.141 | 0.645 | 0.0084 | 0.849 | 9.44 | – | – | – | –
DAN-G (pancreas, adherent) | 0.913 | > 0.2 | 0.783 | 0.0184 | 0.815 | 4.65 | – | – | – | –
BT-20 (breast, adherent) | – | – | 0.81 | 0.0345 | 0.81 | 6.85 | 0.981 | > 10 | – | –
NCI-H847 (small cell lung carcinoma, adherent) | 0.993 | > 0.2 | 0.906 | 0.0452 | – | – | 0.992 | > 10 | 0.932 | > 2
CTV-1 (acute myeloid leukaemia, suspension) | 0.734 | 0.0492 | 0.331 | 0.00117 | – | – | 0.959 | > 10 | 0.941 | > 2
